Experimental data from the supplement of paper PMC9135407.
Several values for one entry are separate records, joined by “and”; a condition that tells them apart may be missing. Equal values may be shown once. Where a name gives a salt, the structure may show the parent alone. The campaign covered roughly 5,800 compounds. About 620 (11%) showed activity.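 How the source made its calls: active = score above a cut-off or among the top three wells of a plate; in these data no inactive exceeds 0.85.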 This is a selection; strong and weak results do not stand in their true shares.

Tested on: primary human hepatic stellate cells (donor 1)
Assay: scaled lipid accumulation score (0 = DMSO-like, 1 = nortriptyline-like); higher = stronger HSC inactivation (lipid re-accumulation), active = hit call of the paper
Settings: 48 h
[1] = library stock concentration: 10 mM
[2] = library stock concentration: 3.33 mM
[3] = library stock concentration: 1 mM
[4] = library stock concentration: 80 uM
[5] = library stock concentration: 400 uM
[6] = library stock concentration: 2 mM

For `CCOC(=O)O[C@]1(C(=O)OCCl)CC[C@H]2[C@@H]3CCC4=CC(=O)C=C[C@]4(C)[C@H]3[C@@H](O)C[C@@]21C`, the “scaled lipid accumulation score” value [1] was inactive: ≤ 0.
`CCOC(=O)O[C@]1(C(=O)OCCl)CC[C@H]2[C@@H]3CCC4=CC(=O)C=C[C@]4(C)[C@H]3[C@@H](O)C[C@@]21C` [Loteprednol etabonate] was tested, and the “scaled lipid accumulation score” value [2] was inactive: 0.028 and the “scaled lipid accumulation score” value [1] was inactive: ≤ 0.
In the case of `CCCCCCCCCCCCCCP(=O)(O)O` [Tetradecyl Phosphonate], the “scaled lipid accumulation score” value [3] is reported as inactive: ≤ 0.
`Fc1ccc(CN(C2=NCCN2)c2c(Cl)cccc2Cl)cc1` [IMID-4F hydrochloride] was tested, and the “scaled lipid accumulation score” value [1] was inactive: 0.763.
In the case of `COC(=O)CCC[C@H](O)[C@H](O)CO` [5(S),6(R)-7-trihydroxymethyl Heptanoate], the “scaled lipid accumulation score” value [3] is reported as inactive: ≤ 0.
With `CCc1cc2c(cc1N1CCC(N3CCOCC3)CC1)C(C)(C)c1[nH]c3cc(C#N)ccc3c1C2=O` the “scaled lipid accumulation score” value [4] was inactive: ≤ -0.016, the “scaled lipid accumulation score” value [5] was inactive: ≤ -0.016 and the “scaled lipid accumulation score” value [6] was inactive: 0.126.
With `CCCCCCCC/C=C\CCCCCCCCOC[C@H](COP(=O)([O-])OCC[N+](C)(C)C)OC(C)=O` the “scaled lipid accumulation score” value [3] was inactive: ≤ -0.018.
For `CC[C@H]1C(=O)OC[C@@H]1Cc1cncn1C` [Isopilocarpine nitrate], the “scaled lipid accumulation score” value [1] was inactive: ≤ 0.
In the case of `CCCCC[C@H](O)/C=C/[C@@H]1[C@H]2C/C(=C\CCCC(=O)O)C[C@H]2C[C@H]1O` [5-cis Carbaprostacyclin], the “scaled lipid accumulation score” value [3] is reported as inactive: ≤ 0.
With `CCCCC/C=C\C/C=C\C/C=C\C=C\[C@@H](O)CCCC(=O)O` the “scaled lipid accumulation score” value (library stock concentration: 100 uM) was inactive: ≤ -0.021.
`O=C(O)C(=O)O.[NH-][C@@H]1CCCC[C@H]1[NH-].[Pt+2]` [Oxaliplatin] was tested, and the “scaled lipid accumulation score” value [2] was inactive: ≤ 0, the “scaled lipid accumulation score” value (library stock concentration: 5 mM) was inactive: 0.058 and the “scaled lipid accumulation score” value [1] was inactive: ≤ 0 and inactive: ≤ -0.001.
`CSc1cc2c(cc1C(F)(F)F)N(C(=O)Nc1cccnc1)CC2` was tested, and the “scaled lipid accumulation score” value [1] was inactive: ≤ -0.006.
For `Cc1nn(-c2ccccc2)c(C)c1C=NN1CCN(Cc2ccccc2)CC1`, the “scaled lipid accumulation score” value [2] was inactive: ≤ -0.008 and the “scaled lipid accumulation score” value [1] was inactive: 0.11 and inactive: ≤ -0.006.
`Cc1ccc(NC(=O)c2ccc(CN3CCN(C)CC3)cc2)cc1Nc1nccc(-c2cccnc2)n1` [Imatinib] was tested, and the “scaled lipid accumulation score” value [4] was inactive: ≤ 0, the “scaled lipid accumulation score” value [5] was inactive: ≤ 0 and the “scaled lipid accumulation score” value [6] was inactive: 0.049.
For `Cc1ccc(NC(=O)c2ccc(CN3CCN(C)CC3)cc2)cc1Nc1nccc(-c2cccnc2)n1` [Imatinib (STI571)] [listing 1 of 2 here], the “scaled lipid accumulation score” value [2] was inactive: 0.133.
`Cc1ccc(NC(=O)c2ccc(CN3CCN(C)CC3)cc2)cc1Nc1nccc(-c2cccnc2)n1` [Imatinib Mesylate (STI571)] was tested, and the “scaled lipid accumulation score” value [2] was inactive: 0.259.
With `Cc1ccc(NC(=O)c2ccc(CN3CCN(C)CC3)cc2)cc1Nc1nccc(-c2cccnc2)n1` the “scaled lipid accumulation score” value [5] was inactive: 0.022, the “scaled lipid accumulation score” value [6] was inactive: ≤ -0.005 and the “scaled lipid accumulation score” value [1] was inactive: 0.628.
With `Cc1cc2nc3c(=O)[nH]c(=O)nc-3n(C)c2cc1C=O` the “scaled lipid accumulation score” value [1] was inactive: ≤ -0.001.
With `O=C(NCC1(c2nc(-c3ccccc3)cs2)CCOCC1)c1cccc(-c2noc(C(F)(F)F)n2)c1` the “scaled lipid accumulation score” value [2] was inactive: ≤ -0.009 and the “scaled lipid accumulation score” value [1] was inactive: ≤ 0.
`CCOC(=O)COc1ccc2c(=O)cc(-c3ccccc3)oc2c1` was tested, and the “scaled lipid accumulation score” value [1] was inactive: ≤ 0.
`Nc1ccc(C(=O)Nc2cccc(-c3nc(N4CCOCC4)c4oc5ncccc5c4n3)c2)cn1` was tested, and the “scaled lipid accumulation score” value [1] was active: 0.995.
For `CCCCCCCC/C=C\CCCCCCCC(=O)OC[C@H](CO)OC(C)=O` [1-Oleoyl-2-acetyl-sn-glycerol], the “scaled lipid accumulation score” value [3] was inactive: 0.033.
In the case of `CCCCCCCC/C=C\CCCCCCCC(=O)OC[C@H](CO)OC(C)=O` [1-Oleoyl 2-acetyl-glycerol], the “scaled lipid accumulation score” value [3] is reported as inactive: ≤ -0.021.
With `CNCc1ccc(-c2cc(-c3nc(-c4ccc(S(=O)(=O)C(C)C)cc4)cnc3N)on2)cc1` the “scaled lipid accumulation score” value [2] was active: 1.12.
In the case of `O=C1/C(=C/c2cccs2)CCC/C1=C\c1cccs1`, the “scaled lipid accumulation score” value [1] is reported as inactive: ≤ 0.
In the case of `N[C@@H](CSC(c1ccccc1)(c1ccccc1)c1ccccc1)C(=O)O` [S-Trityl-L-cysteine], the “scaled lipid accumulation score” value [1] is reported as inactive: 0.041.
With `O=C(c1ccc(Nc2nccc(-c3cc4ccccc4s3)n2)cc1)N1CCC(N2CCCC2)CC1` [IKK Inhibitor VII] the “scaled lipid accumulation score” value [2] was active: 1.06.
For `Cc1c(C(=O)NN2CCCCC2)nn(-c2ccc(Cl)cc2Cl)c1-c1ccc(Cl)cc1` [Rimonabant], the “scaled lipid accumulation score” value [2] was inactive: ≤ 0 and the “scaled lipid accumulation score” value [1] was inactive: ≤ 0.
In the case of `COc1cc2c(cc1OC)CC(=O)N(CCCN(C)C[C@H]1Cc3cc(OC)c(OC)cc31)CC2` [Ivabradine HCl], the “scaled lipid accumulation score” value [2] is reported as inactive: ≤ 0 and the “scaled lipid accumulation score” value [1] is reported as inactive: ≤ 0.
For `C[C@H]1c2cccc(O)c2C(=O)C2=C(O)[C@]3(O)C(=O)C(C(N)=O)=C(O)[C@@H](N(C)C)[C@@H]3[C@@H](O)[C@@H]21` [Doxycycline hyclate], the “scaled lipid accumulation score” value was inactive: ≤ 0.
In the case of `C[C@H]1c2cccc(O)c2C(=O)C2=C(O)[C@]3(O)C(=O)C(C(N)=O)=C(O)[C@@H](N(C)C)[C@@H]3[C@@H](O)[C@@H]21`, the “scaled lipid accumulation score” value [1] is reported as inactive: ≤ 0.
For `C[C@H]1c2cccc(O)c2C(=O)C2=C(O)[C@]3(O)C(=O)C(C(N)=O)=C(O)[C@@H](N(C)C)[C@@H]3[C@@H](O)[C@@H]21` [Doxycycline HCl], the “scaled lipid accumulation score” value [2] was inactive: ≤ 0, the “scaled lipid accumulation score” value (library stock concentration: 4.5 mM) was inactive: ≤ 0 and the “scaled lipid accumulation score” value [1] was inactive: ≤ -0.001.
For `C[C@H]1c2cccc(O)c2C(=O)C2=C(O)[C@]3(O)C(=O)C(C(N)=O)=C(O)[C@@H](N(C)C)[C@@H]3[C@@H](O)[C@@H]21` [Doxycycline hydrochloride], the “scaled lipid accumulation score” value [1] was inactive: ≤ 0.
In the case of `COc1cc(C(=O)N2CCC(N3CCN(C)CC3)CC2)ccc1Nc1ncc2c(n1)N(C)c1ccccc1C(=O)N2C` [listing 1 of 2 here], the “scaled lipid accumulation score” value [1] is reported as active: 0.929.
With `COc1cc(C(=O)N2CCC(N3CCN(C)CC3)CC2)ccc1Nc1ncc2c(n1)N(C)c1ccccc1C(=O)N2C` [listing 2 of 2 here] the “scaled lipid accumulation score” value [4] was inactive: ≤ 0, the “scaled lipid accumulation score” value [5] was inactive: 0.015 and the “scaled lipid accumulation score” value [6] was inactive: 0.329.
In the case of `Clc1ccc(C(Cn2ccnc2)OCc2ccsc2Cl)c(Cl)c1` (stereo not drawn) [Tioconazole], the “scaled lipid accumulation score” value [2] is reported as inactive: ≤ 0, the “scaled lipid accumulation score” value (library stock concentration: 5.2 mM) is reported as inactive: ≤ 0 and the “scaled lipid accumulation score” value [1] is reported as inactive: ≤ 0.
For `O=c1[nH]nc(Sc2ncc([N+](=O)[O-])s2)n1-c1ccc2c(c1)OCCO2`, the “scaled lipid accumulation score” value [1] was active: 1.25.
`O=C(O)CNC(=O)C(CS)Cc1ccccc1` (racemic) [DL-Thiorphan] was tested, and the “scaled lipid accumulation score” value [1] was inactive: ≤ 0.
For `CCCC1C(=O)N2C(N(C)C)=Nc3ccc(C)cc3N2C1=O` (stereo not drawn) [Azapropazone], the “scaled lipid accumulation score” value was inactive: ≤ 0.
In the case of `COC(=O)/C=C/c1cccc(N(Cc2ccc(-c3ccc(N(C)C)cc3)cc2)C(=O)C2CCCCC2)c1` [Fexaramine], the “scaled lipid accumulation score” value [1] is reported as inactive: 0.006.
For `Cc1ccc(NC(=O)c2ccc(CN3CCN(C)CC3)cc2)cc1Nc1nccc(-c2cccnc2)n1` [Imatinib (STI571)] [listing 2 of 2 here], the “scaled lipid accumulation score” value [1] was active: 0.92.
`C[C@](N)(Cc1ccc(O)c(O)c1)C(=O)O` [Methyldopa (L,-)] was tested, and the “scaled lipid accumulation score” value was inactive: ≤ 0.
`C[C@](N)(Cc1ccc(O)c(O)c1)C(=O)O` [Methyldopa] was tested, and the “scaled lipid accumulation score” value (library stock concentration: 9.5 mM) was inactive: ≤ 0 and inactive: ≤ -0.001 and the “scaled lipid accumulation score” value [1] was inactive: ≤ 0 and inactive: 0.076.
`C[C@](N)(Cc1ccc(O)c(O)c1)C(=O)O` [L-alpha-Methyl DOPA] was tested, and the “scaled lipid accumulation score” value [1] was inactive: ≤ -0.055.
For `c1cnc(N2CCN(Cc3ccc4c(c3)OCO4)CC2)nc1` [Piribedil HCl], the “scaled lipid accumulation score” value (library stock concentration: 6.7 mM) was inactive: ≤ -0.006.
With `c1cnc(N2CCN(Cc3ccc4c(c3)OCO4)CC2)nc1` [Piribedil maleate] the “scaled lipid accumulation score” value [1] was inactive: ≤ 0.
For `c1cnc(N2CCN(Cc3ccc4c(c3)OCO4)CC2)nc1` [Piribedil], the “scaled lipid accumulation score” value (library stock concentration: 9.7 mM) was inactive: ≤ 0 and the “scaled lipid accumulation score” value [1] was inactive: ≤ -0.006.
In the case of `c1cnc(N2CCN(Cc3ccc4c(c3)OCO4)CC2)nc1` [Piribedil hydrochloride], the “scaled lipid accumulation score” value is reported as inactive: 0.013.
With `COc1cc2c(c(OC)c1OC)-c1c(cc3c(c1OC)OCO3)CC(C)C(C)C2` (stereo not drawn) [Schisandrin B (Sch B)] the “scaled lipid accumulation score” value [2] was inactive: ≤ 0 and the “scaled lipid accumulation score” value [1] was inactive: ≤ -0.001.
For `Cl.Fc1ccc([C@@H]2CCNC[C@H]2COc2ccc3c(c2)OCO3)cc1` [Paroxetine HCl], the “scaled lipid accumulation score” value [2] was active: 0.491.
For `CCOC(=O)c1cnc2ccc(-c3cncc(NS(=O)(=O)c4ccccc4)c3)cn12`, the “scaled lipid accumulation score” value [2] was inactive: 0.492.
`CC(C)(OCc1nn(Cc2ccccc2)c2ccccc12)C(=O)O` [Bindarit] was tested, and the “scaled lipid accumulation score” value [2] was inactive: ≤ 0 and the “scaled lipid accumulation score” value [1] was inactive: ≤ 0.
In the case of `Cc1ccc(S(=O)(=O)N[C@@H](Cc2ccccc2)C(=O)CCl)cc1` [Tosyl-Phe-CMK (TPCK)], the “scaled lipid accumulation score” value (library stock concentration: 14.2 mM) is reported as inactive: 0.746.
In the case of `Cc1ccc(S(=O)(=O)N[C@@H](Cc2ccccc2)C(=O)CCl)cc1` [N-p-Tosyl-L-phenylalanine chloromethyl ketone], the “scaled lipid accumulation score” value [1] is reported as inactive: 0.794.
In the case of `CCCN1CCCC[C@H]1C(=O)Nc1c(C)cccc1C` [Ropivacaine HCl], the “scaled lipid accumulation score” value [2] is reported as inactive: ≤ 0 and the “scaled lipid accumulation score” value [1] is reported as inactive: ≤ 0.
In the case of `CCCN1CCCC[C@H]1C(=O)Nc1c(C)cccc1C`, the “scaled lipid accumulation score” value (library stock concentration: 9.9 mM) is reported as inactive: ≤ 0.
In the case of `CCCCCC(O)C=CC1C(O)CC(O)C1CC=CCCCCOC` (stereo not drawn) [Prostaglandin F2.alpha. Alcohol methyl ether], the “scaled lipid accumulation score” value [3] is reported as inactive: ≤ 0.
In the case of `CCCCCCCCCCCCC/C=C/[C@@H](O)[C@H](CO)NCCCCCCCC` [C-8 Ceramine], the “scaled lipid accumulation score” value [3] is reported as inactive: 0.054.
`CCCCCCCCCCCCC/C=C/[C@@H](O)[C@H](CO)NCCCCCCCC` [C8 Ceramine] was tested, and the “scaled lipid accumulation score” value [3] was inactive: 0.067.
For `Cc1cccc(-c2[nH]c(C(C)(C)C)nc2-c2ccc3c(c2)OCO3)n1`, the “scaled lipid accumulation score” value [2] was inactive: 0.571 and the “scaled lipid accumulation score” value [1] was inactive: ≤ 0.
In the case of `NC1CCN(c2cccc(Cl)n2)CC1`, the “scaled lipid accumulation score” value [1] is reported as inactive: 0.62 and inactive: 0.499.
For `C[C@@H](N)c1ccc(C(=O)Nc2ccnc3[nH]ccc23)cc1.Cl.Cl`, the “scaled lipid accumulation score” value [1] was active: 1.13.
For `COc1cccc(CCc2ccccc2OCC[C@@H]2C[C@@H](O)CN2C)c1.Cl`, the “scaled lipid accumulation score” value [1] was active: 1.18.
